# Laboratory results published in the supplement of paper PMC4166925.
# ± gives the standard deviation of the averaged measurements. In all, about 33,000 sequences were measured (“E-score (dimensionless, -0.5 to 0.5)”: median about -0.046, highest 2% from about 0.36 on). This is one part of the list.
# Tested on: T1, SpTbr T-box DNA-binding domain (GST fusion)
# T1 sequence: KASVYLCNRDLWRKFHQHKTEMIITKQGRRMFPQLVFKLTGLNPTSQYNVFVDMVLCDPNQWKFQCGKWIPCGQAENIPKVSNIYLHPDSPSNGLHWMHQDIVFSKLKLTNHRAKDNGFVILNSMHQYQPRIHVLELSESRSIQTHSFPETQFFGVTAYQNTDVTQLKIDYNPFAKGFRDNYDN
# Test: PBM E-score of 8-mer (E-score (dimensionless, -0.5 to 0.5)); Tbr is Tbrain of the sea star Patiria miniata (Pm) or the sea urchin Strongylocentrotus purpuratus (Sp); higher = stronger binding preference; most listed sequences are background and not binding sites
# Details: the construct has about 5 more residues each side
# Summary of the method: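 Each ungapped 8-mer received an enrichment E-score from the Universal PBM Analysis Suite, averaged over duplicate arrays. The proteins were Tbr T-box DNA-binding domains, covering the whole T-box plus about five flanking residues, fused to GST and expressed in BL21 E. coli at 20 °C before glutathione affinity purification. Universal Agilent oligonucleotide arrays were made double-stranded by primer extension and incubated with 200 nM protein in PBS (pH 7.5). The arrays were then scanned and quantified, and every 8-mer was scored from probe intensities.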
row,Sequence,PBM E-score of 8-mer
1,CCGTACCA,-0.0725 ± 0.034
2,GGCAGGAC,-0.0928 ± 0.014
3,GCCTCCCA,-0.0973 ± 0.04
4,GAACGACA,0.17 ± 0.023
5,CACTGTAC,-0.0249 ± 0.028
6,CATAATGC,-0.0613 ± 0.012
7,ACGTTGCT,-0.0694 ± 0.043
8,GATTTACA,0.17 ± 0.015
9,AGTTTTTG,0.0492 ± 0.0037
10,GCACCGAC,0.0373 ± 0.046
11,CACTACGA,-0.0143 ± 0.053
12,GAAGCTGA,-0.0499 ± 0.083
13,GGATTAGA,-0.284 ± 0.0059
14,AGATAACG,0.082 ± 0.055
15,TCGATTCA,0.114 ± 0.093
16,CCTCATCA,-0.163 ± 0.083
17,GTTACAGA,-0.00877 ± 0.033
18,ATCTCTCG,0.0419 ± 0.035
19,CCCACGCC,0.163 ± 0.014
20,ATACGAAT,-0.2 ± 0.048
21,GGGAATTA,-0.225 ± 0.0098
22,GACGCCTC,0.328 ± 0.017

row,Sequence,PBM E-score of 8-mer
1,CACTCTAA,0.0396 ± 0.076
2,ACCGTTAC,0.0751 ± 0.062
3,GCAGTTAC,-0.00728 ± 0.006
4,CATTATAG,-0.173 ± 0.051
5,GTAAAGAA,0.0185 ± 0.081
6,CGAATGAC,0.145 ± 0.038
7,AAGAAGGC,0.0046 ± 0.026
8,CGTAGCTC,-0.189 ± 0.013
9,CATTTAAG,-0.167 ± 0.035
10,CACTACTA,-0.115 ± 0.029
11,AAAGGCAA,-0.0491 ± 0.037
12,ATTCGCAA,0.29 ± 0.016
13,CACCCATG,0.153 ± 0.038
14,GGGGTCTA,-0.219 ± 0.058
15,GTATCCCA,-0.3 ± 0.018
16,GCATAGCA,-0.0561 ± 0.049
17,AAGTTTAT,-0.141 ± 0.074
18,AGGTGCAC,0.125 ± 0.049
19,GACCTTGC,-0.153 ± 0.0056
20,ACAGAAAA,-0.236 ± 0.1
21,AGATCATA,-0.24 ± 0.0053
22,CCGCAAGA,-0.0245 ± 0.026

row,Sequence,PBM E-score of 8-mer
1,AATATAGA,0.0573 ± 0.0045
2,AAACTCCT,-0.113 ± 0.064
3,AGTGCGTG,0.144 ± 0.027
4,GACCGAAC,-0.115 ± 0.11
5,ATGAGACA,-0.0584 ± 0.063
6,GCATCGCC,0.0675 ± 0.09
7,GGCAAAGA,-0.18459 ± 9.9e-05
8,ACACGTCG,0.372 ± 0.0071
9,GAGTGGCC,0.0111 ± 0.045
10,AATGGTTC,-0.0605 ± 0.035
11,AAGGTTAT,0.0219 ± 0.0079
12,AACCGAGT,-0.143 ± 0.071
13,CAAAGCTG,0.0347 ± 0.069
14,CCTGCGTA,-0.0822 ± 0.008
15,AACTGTTA,0.284 ± 0.03
16,AGTAGTAC,-0.311 ± 0.024
17,CAATAAGC,-0.105 ± 0.057
18,ATATGAGC,-0.256 ± 0.057
19,GGCATACC,-0.154 ± 0.041
20,CGTCGAGC,0.0598 ± 0.075
21,TAACCCAA,-0.0168 ± 0.03
22,TCATGGCA,0.0397 ± 0.019

row,Sequence,PBM E-score of 8-mer
1,CCCAATTC,-0.184 ± 0.011
2,AGTAAGGA,-0.116 ± 0.045
3,GGCAGGGA,-0.182 ± 0.062
4,ACGCGACC,0.0679 ± 0.048
5,CAATCGCG,0.325 ± 0.016
6,GTGACTTA,-0.0123 ± 0.039
7,ACGCCTGA,0.142 ± 0.019
8,CATTTGGC,0.0294 ± 0.017
9,AAGGTAAG,-0.251 ± 0.08
10,TATGCGCA,-0.327 ± 0.016
11,ATGACTTC,-0.084 ± 0.07
12,CGCAAGCC,-0.0145 ± 0.012
13,ACTTTCCT,0.126 ± 0.0083
14,GACGGCAA,0.057 ± 0.0096
15,AAAACTGG,0.0567 ± 0.055
16,ACCTCGCC,0.283 ± 0.026
17,ACAGCACT,0.15 ± 0.031
18,TATACATA,-0.0604 ± 0.045
19,CGAAGCAC,-0.0831 ± 0.01
20,CGGGACAC,0.153 ± 0.012
